# This is one part of the list. Many values rest on one well or one pass, so single values are uncertain.
# Assays:
# Test in all cases: cell count relative to DMSO control; melanoma cells; higher = more viable cells
# Details in all cases: library dose: low library concentration; 72 h
# MZ2-MEL = test system: MZ2-MEL
# MeWo = test system: MeWo
# RPMI7951 = test system: RPMI7951
# RVH-421 = test system: RVH-421
# SkMel28 = test system: SkMel28
# SkMel2 = test system: SkMel2
# SkMel30 = test system: SkMel30
# SkMel5 = test system: SkMel5
# UACC257 = test system: UACC257
# UACC62 = test system: UACC62
# WM115 = test system: WM115
# WM1716 = test system: WM1716
# WM1745 = test system: WM1745
# WM3526 = test system: WM3526
# WM3619 = test system: WM3619
# WM451Lu = test system: WM451Lu
# 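Note: cell number obtained by counting DAPI-stained nuclei in high-throughput microscope images with image analysis software, screen run in 1,536-well plates.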
Structure (SMILES),cell count (MZ2-MEL) [%],cell count (MeWo) [%],cell count (RPMI7951) [%],cell count (RVH-421) [%],cell count (SkMel28) [%],cell count (SkMel2) [%],cell count (SkMel30) [%],cell count (SkMel5) [%],cell count (UACC257) [%],cell count (UACC62) [%],cell count (WM115) [%],cell count (WM1716) [%],cell count (WM1745) [%],cell count (WM3526) [%],cell count (WM3619) [%],cell count (WM451Lu) [%]
"N#CC[C@H](C1CCCC1)n1cc(-c2ncnc3[nH]ccc23)cn1 [ruxolitinib] + COc1cc(N2CCC(N3CCN(C)CC3)CC2)ccc1Nc1ncc(Cl)c(Nc2ccccc2S(=O)(=O)C(C)C)n1 [NVP-TAE684] (first compound 1 µM, partner dose 0.08 µM)",94.5,87.3,77.5,84.5,105,106,79.8,87.7,93.3,119,100,98.1,87,91.5,102,94
"Cc1cc(Nc2cc(N3CCN(C)CC3)nc(Sc3ccc(NC(=O)C4CC4)cc3)n2)n[nH]1 [Tozasertib] + NC(=O)Nc1cc(-c2cccc(F)c2)sc1C(=O)N[C@H]1CCCNC1 [AZD7762] (first compound 0.006 µM, partner dose 0.02 µM)",109,94.8,76.7,119,99.4,99.9,99.1,103,156,76.6,80.2,80.5,89.6,67.8,45.9,104
"Cc1cc(Nc2cc(N3CCN(C)CC3)nc(Sc3ccc(NC(=O)C4CC4)cc3)n2)n[nH]1 [Tozasertib] + CCc1ccc(CCOc2ccc(CC3SC(=O)NC3=O)cc2)nc1 [pioglitazone] (first compound 0.006 µM, partner dose 2 µM)",95.4,90.3,90.5,112,78.9,95.9,92.3,110,78.8,98.4,97.6,90.6,79.1,101,95.4,91.7
"Cc1cc(Nc2cc(N3CCN(C)CC3)nc(Sc3ccc(NC(=O)C4CC4)cc3)n2)n[nH]1 [Tozasertib] + c1cc(-c2cnn3cc(-c4ccc(OCCN5CCCCC5)cc4)cnc23)ccn1 [Dorsomorphin] (first compound 0.006 µM, partner dose 0.4 µM)",99.3,95.1,86.5,88.2,111,105,98.7,117,105,91.9,92.7,84.3,79.3,103,93.5,93
"N#CC[C@H](C1CCCC1)n1cc(-c2ncnc3[nH]ccc23)cn1 [ruxolitinib] + Cc1ccc(NC(=O)c2cccc(N(C)C)c2)cc1NC(=O)c1ccc(O)cc1 [ZM336372] (first compound 1 µM, partner dose 2 µM)",90.4,93.1,98.2,96.3,111,119,103,115,78.8,92.7,109,108,87.4,102,98.3,86.2
"N#CC[C@H](C1CCCC1)n1cc(-c2ncnc3[nH]ccc23)cn1 [ruxolitinib] + COC(=O)c1sccc1S(=O)(=O)Nc1ccc(Nc2ccccc2)cc1OC [GSK0660] (first compound 1 µM, partner dose 1 µM)",93,104,93.2,80.6,104,105,97.1,106,126,91.3,124,109,99.5,111,101,111
"N#CC[C@H](C1CCCC1)n1cc(-c2ncnc3[nH]ccc23)cn1 [ruxolitinib] + CCCCCCCCCCCC1=C(O)C(=O)C=C(O)C1=O [Embelin] (first compound 1 µM, partner dose 1.2 µM)",101,90.4,123,95.9,97.1,117,109,101,75.2,96.2,105,119,87,104,101,83.8
"Cc1cc(Nc2cc(N3CCN(C)CC3)nc(Sc3ccc(NC(=O)C4CC4)cc3)n2)n[nH]1 [Tozasertib] + COc1ccc2c(c1)CCC1C2CCC2(C)C(NCCCCCCN3C(=O)C=CC3=O)CCC12 [U73122] (first compound 0.006 µM, partner dose 0.4 µM)",105,95.6,73.9,79.8,91.3,110,113,104,103,99,87.2,77.6,90.8,87.5,114,92.7
"Cc1cc(Nc2cc(N3CCN(C)CC3)nc(Sc3ccc(NC(=O)C4CC4)cc3)n2)n[nH]1 [Tozasertib] + COc1ccc(COc2ccc(Cc3cnc(N)nc3N)cc2OC)cc1 [GW2580] (first compound 0.006 µM, partner dose 1 µM)",92.1,100,91.7,99.3,94.5,97.2,95.9,102,110,87.1,84.3,92.1,89.5,89.7,85.7,103
"N#CC[C@H](C1CCCC1)n1cc(-c2ncnc3[nH]ccc23)cn1 [ruxolitinib] + CCc1ccc(CCOc2ccc(CC3SC(=O)NC3=O)cc2)nc1 [pioglitazone] (first compound 1 µM, partner dose 2 µM)",103,93.8,107,57.1,122,101,85.8,102,107,113,126,108,91.6,94.2,91,101
"N#CC[C@H](C1CCCC1)n1cc(-c2ncnc3[nH]ccc23)cn1 [ruxolitinib] + CC(C)(C)c1cnc(CSc2cnc(NC(=O)C3CCNCC3)s2)o1 [SNS-032] (first compound 1 µM, partner dose 0.01 µM)",106,105,97.3,84.4,103,124,142,111,88.3,108,108,99.9,80.2,137,125,103
"CC[C@]1(O)C[C@H]2CN(CCc3c([nH]c4ccccc34)[C@@](C(=O)OC)(c3cc4c(cc3OC)N(C=O)[C@H]3[C@@](O)(C(=O)OC)[C@H](OC(C)=O)[C@]5(CC)C=CCN6CC[C@]43[C@@H]65)C2)C1 [vincristine] + c1cc(-c2cnn3cc(-c4ccc(OCCN5CCCCC5)cc4)cnc23)ccn1 [Dorsomorphin] (first compound 0.0001 µM, partner dose 0.4 µM)",80.5,63.1,37.2,66.6,55.3,74.4,40.8,83,48.9,39.8,39.8,39.6,70.1,61.8,48.9,46.2
"Cc1cc(Nc2cc(N3CCN(C)CC3)nc(Sc3ccc(NC(=O)C4CC4)cc3)n2)n[nH]1 [Tozasertib] + O=C1NC(=O)/C(=C/c2ccc(-c3ccc(F)cc3O)o2)S1 [AS252424] (first compound 0.006 µM, partner dose 1 µM)",104,86.3,121,80.6,81.4,95.1,101,99.6,85.8,100,87.6,94.1,82.1,80.1,79.1,94.8
"N#CC[C@H](C1CCCC1)n1cc(-c2ncnc3[nH]ccc23)cn1 [ruxolitinib] + COc1ccc2c(c1)CCC1C2CCC2(C)C(NCCCCCCN3C(=O)C=CC3=O)CCC12 [U73122] (first compound 1 µM, partner dose 0.4 µM)",95,97.8,99.9,94.7,115,104,60.7,106,79.6,116,108,95.5,96,61.6,94.1,105
"N#CC[C@H](C1CCCC1)n1cc(-c2ncnc3[nH]ccc23)cn1 [ruxolitinib] + Oc1cc(-c2nc(-c3ccccc3)[nH]c2-c2ccncc2)ccc1Cl [L779450] (first compound 1 µM, partner dose 0.2 µM)",79.8,98.1,99.8,93.5,113,89.3,94.3,116,87.4,104,93,115,98,92.5,105,119
"Cc1cc(Nc2cc(N3CCN(C)CC3)nc(Sc3ccc(NC(=O)C4CC4)cc3)n2)n[nH]1 [Tozasertib] + COc1cc2ncnc(Nc3ccc(Oc4ccccc4)cc3)c2cc1OC [SrcI1] (first compound 0.006 µM, partner dose 2 µM)",94.5,88,101,414,74.5,111,66.3,91.3,66.6,75.3,88.8,89.1,68.7,72.8,91.4,118
"Cc1cc(Nc2cc(N3CCN(C)CC3)nc(Sc3ccc(NC(=O)C4CC4)cc3)n2)n[nH]1 [Tozasertib] + O=C(Nc1ccccc1)c1cc([N+](=O)[O-])ccc1Cl [GW9662] (first compound 0.006 µM, partner dose 2 µM)",101,74.1,72.7,85.4,90.2,100,95.9,103,98.7,79.9,93.8,103,89.5,98.8,110,106
